The list shows a part of the results.

The test system of one experiment is HSkMC. In words: cytotoxicity call (relative viability < 0.9). Conditions: 10 µM.
Another experiment has as its system HepG2. In words: cytotoxicity call (relative viability < 0.9). Conditions: 10 µM.
The next experiment deals with S. aureus RN4220. The experiment in a line: growth inhibition call (relative growth <= 0.2). Conditions: 50 µM.

Consider `C[C@@H]1CN([C@@H](C)CO)C(=O)CCCn2nncc2CO[C@H]1CN(C)S(=O)(=O)c1ccc2ccccc2c1`, for which the cytotoxicity call in the experiment on HSkMC and in the experiment on HepG2 was “inactive” each time. Besides, the growth inhibition call with S. aureus RN4220 is “inactive”.
`C[C@@H]1CN([C@H](C)CO)C(=O)Cc2cc(NC(=O)Nc3ccccc3)ccc2O[C@H]1CN(C)Cc1ccc(C(F)(F)F)cc1`: the cytotoxicity call with HSkMC is “active”. Also, the cytotoxicity call in the experiment on HepG2 is “inactive”. In addition, in the experiment on S. aureus RN4220, the growth inhibition call is “inactive”.
For the compound `C[C@H](CO)N1C[C@H](C)[C@@H](CN(C)C(=O)Nc2ccccc2)Oc2c(NC(=O)C3CCOCC3)cccc2C1=O`, the cytotoxicity call in the experiment on HSkMC and in the experiment on HepG2 was “inactive” in each case. The growth inhibition call in the experiment on S. aureus RN4220 is “inactive”.
On to `Cc1ccc(S(=O)(=O)N(C)C[C@@H]2Oc3ccc(NS(=O)(=O)c4c(C)noc4C)cc3C(=O)N([C@@H](C)CO)C[C@H]2C)cc1`, for which the cytotoxicity call with HSkMC and with HepG2 was “inactive” throughout. Moreover, the growth inhibition call with S. aureus RN4220 was “inactive”.
On to `NCC1CCC(C(=O)O)CC1` (stereo unspecified), for which the cytotoxicity call with HSkMC and in the experiment on HepG2 was “inactive” throughout. Also, the growth inhibition call with S. aureus RN4220 was “inactive”.
Take `C[C@H]1CCCCO[C@@H](CN(C)C(=O)c2ccccc2)[C@@H](C)CN([C@@H](C)CO)C(=O)c2cc(NC(=O)Cc3ccccc3)ccc2O1`: the cytotoxicity call with HSkMC and in the experiment with HepG2 was “inactive” in each case. Moreover, the growth inhibition call in the experiment on S. aureus RN4220 was “inactive”.
In the case of `O=S(=O)(c1ccc(-n2cnnn2)cc1)N1CCNCC1`, the cytotoxicity call with HSkMC and in the experiment with HepG2 was “inactive” in each case. For the same compound, the growth inhibition call in the experiment on S. aureus RN4220 was “inactive”.
On to `CC(C)NC(=O)N(C)C[C@H]1OCc2cnnn2CCCC(=O)N([C@H](C)CO)C[C@H]1C`, for which the cytotoxicity call with HSkMC and in the experiment on HepG2 was “inactive” in each case. Also, in the experiment with S. aureus RN4220, the growth inhibition call is “inactive”.
For the compound `C[C@@H]1CN([C@@H](C)CO)C(=O)c2cc(NC(=O)CCCN(C)C)ccc2O[C@H]1CN(C)S(=O)(=O)c1ccc(Cl)cc1`, the cytotoxicity call in the experiment on HSkMC and in the experiment with HepG2 was “inactive” each time. For the same compound, the growth inhibition call in the experiment with S. aureus RN4220 is “inactive”.
In the case of `C[C@H]1CN([C@@H](C)CO)C(=O)c2cc(-c3ccncc3)cnc2O[C@H]1CN(C)C(=O)Nc1ccc2c(c1)OCO2`, the cytotoxicity call in the experiment with HSkMC and in the experiment on HepG2 was “inactive” each time. Moreover, in the experiment on S. aureus RN4220, the growth inhibition call is “inactive”.
For `CN1C(=O)C[C@H](Nc2ccc(N(C)C)cc2)C1=O`, the cytotoxicity call with HSkMC and in the experiment with HepG2 was “inactive” throughout. Besides, the growth inhibition call in the experiment on S. aureus RN4220 was “inactive”.
`COc1ccc(S(=O)(=O)N(C)C[C@H]2OCCCC[C@@H](C)Oc3ccc(NS(C)(=O)=O)cc3C(=O)N([C@H](C)CO)C[C@H]2C)cc1`: the cytotoxicity call with HSkMC and with HepG2 was “inactive” in each case. The growth inhibition call with S. aureus RN4220 was “inactive”.
For `C[C@H]1CCCCO[C@H](CN(C)S(=O)(=O)c2ccc(Cl)cc2)[C@@H](C)CN([C@@H](C)CO)C(=O)c2cc(NS(=O)(=O)c3ccccc3)ccc2O1`, the cytotoxicity call with HSkMC and in the experiment on HepG2 was “inactive” in each case. The growth inhibition call in the experiment with S. aureus RN4220 is “inactive”.
With `COc1ccc(-c2cccc(-c3ccc([C@H]4CC(=O)C[C@@H](c5ccccc5)C45C(=O)OC(C)(C)OC5=O)cc3)c2)cc1`, the cytotoxicity call with HSkMC and in the experiment on HepG2 was “inactive” throughout. The growth inhibition call in the experiment with S. aureus RN4220 was “inactive”.
Take `Cc1ccc(S(=O)(=O)Nc2ccc3c(c2)C(=O)N([C@H](C)CO)C[C@@H](C)[C@@H](CN(C)S(=O)(=O)c2cccs2)O3)cc1`: the cytotoxicity call in the experiment with HSkMC and in the experiment with HepG2 was “inactive” each time. For the same compound, in the experiment on S. aureus RN4220, the growth inhibition call is “inactive”.
`C[C@H](CO)N1C[C@H](C)[C@@H](CN(C)Cc2ccc(Cl)c(Cl)c2)Oc2ccc(NC(=O)CCCCCC(=O)Nc3ccccc3N)cc2C1=O`: the cytotoxicity call in the experiment with HSkMC and with HepG2 was “inactive” each time. For the same compound, the growth inhibition call in the experiment on S. aureus RN4220 was “inactive”.
Consider `C[C@H]1CN([C@@H](C)CO)C(=O)c2cccc(NC(=O)c3ccc(-c4nccs4)cc3)c2O[C@H]1CN(C)S(=O)(=O)c1cn(C)cn1`, for which the cytotoxicity call with HSkMC and with HepG2 was “inactive” in each case. The growth inhibition call in the experiment with S. aureus RN4220 is “inactive”.
In the case of `CC[C@@H](Nc1n[nH]c(=O)[nH]c1=O)C(=O)OC`, the cytotoxicity call in the experiment with HSkMC and with HepG2 was “inactive” each time. Also, the growth inhibition call in the experiment with S. aureus RN4220 was “inactive”.
For the compound `C[C@H](CO)N1C[C@H](C)[C@@H](CN(C)Cc2ccccc2)OCCCC[C@H](C)Oc2ccc(NC(=O)C3CCCCC3)cc2C1=O`, the cytotoxicity call in the experiment with HSkMC and in the experiment on HepG2 was “inactive” in each case. Moreover, the growth inhibition call with S. aureus RN4220 was “inactive”.
Consider `C=CCNC(=O)[C@@H]1[C@H]2C(=O)O[C@H](c3ccccc3)[C@H](c3ccccc3)N2[C@H](c2ccc(OCCO)cc2)[C@@]12C(=O)Nc1ccc(C#Cc3ccc(OC)cc3)cc12`, for which the cytotoxicity call in the experiment with HSkMC and in the experiment on HepG2 was “inactive” in each case. Besides, the growth inhibition call in the experiment on S. aureus RN4220 was “inactive”.
Regarding `C[C@@H]1CN([C@@H](C)CO)C(=O)c2cccc(NC(=O)C3CC3)c2O[C@H]1CN(C)S(=O)(=O)c1cccs1`, the cytotoxicity call in the experiment on HSkMC and in the experiment on HepG2 was “inactive” in each case. For the same compound, the growth inhibition call with S. aureus RN4220 was “inactive”.
As for `O=C(C[C@@H]1C[C@H]2c3cc(NC(=O)Nc4ccc(C(F)(F)F)cc4)ccc3O[C@H]2[C@@H](CO)O1)NCc1cc(F)ccc1F`, the cytotoxicity call with HSkMC and in the experiment with HepG2 was “inactive” throughout. Also, in the experiment with S. aureus RN4220, the growth inhibition call is “inactive”.
Turning to `CC(C)NC(=O)N(C)C[C@@H]1Oc2cc(C#Cc3ccccn3)ccc2S(=O)(=O)N([C@H](C)CO)C[C@H]1C`, the cytotoxicity call in the experiment with HSkMC and in the experiment on HepG2 was “inactive” in each case. For the same compound, in the experiment with S. aureus RN4220, the growth inhibition call is “inactive”.
On to `COc1ccc(NC(=O)N(C)C[C@@H]2Oc3ccc(NS(C)(=O)=O)cc3CC(=O)N([C@@H](C)CO)C[C@@H]2C)cc1`, for which the cytotoxicity call with HSkMC and with HepG2 was “inactive” throughout. Also, the growth inhibition call in the experiment with S. aureus RN4220 is “inactive”.
On to `C[C@@H]1CCCCO[C@@H](CN(C)C(=O)C2CCCCC2)[C@@H](C)CN([C@H](C)CO)C(=O)c2cc(NS(=O)(=O)c3ccc(Cl)cc3)ccc2O1`, for which the cytotoxicity call with HSkMC was “active”. Further, in the experiment on HepG2, the cytotoxicity call is “inactive”. For the same compound, in the experiment on S. aureus RN4220, the growth inhibition call is “inactive”.
As for `C[C@@H]1CN([C@H](C)CO)C(=O)c2cc(NC(=O)Nc3ccc(C(F)(F)F)cc3)ccc2O[C@@H](C)CCCCO[C@H]1CN(C)C(=O)Nc1ccc(C(F)(F)F)cc1`, the cytotoxicity call in the experiment on HSkMC (human skeletal muscle cells) is “inactive”. Moreover, the cytotoxicity call in the experiment with HepG2 is “active”. Besides, the growth inhibition call in the experiment with S. aureus RN4220 was “inactive”.
As for `Cc1ccc(-c2cnc3c(c2)C(=O)N([C@@H](C)CO)C[C@@H](C)[C@@H](CN(C)C(=O)Cc2cccnc2)O3)cc1`, the cytotoxicity call with HSkMC and in the experiment with HepG2 was “inactive” each time. For the same compound, in the experiment on S. aureus RN4220, the growth inhibition call was “inactive”.

For the origin of these results see the antibiotic and cytotoxicity screens of Wong et al. (2023).
